Measurements reported in PMC4336329 (PLoS ONE, 2015).
The campaign covered roughly 310,000 compounds. About 2,200 (0.71%) showed an effect of 50% or more. Effects have a minus sign here. The list shows a part of the results.

These molecules were tested against human ether-à-go-go-related gene (hERG) potassium channel (human, UniProt Q12809) (assay: primary screen, population patch clamp on CHO cells stably expressing hERG).
Sequence of human ether-à-go-go-related gene (hERG) potassium channel (Q12809 whole entry, looked up): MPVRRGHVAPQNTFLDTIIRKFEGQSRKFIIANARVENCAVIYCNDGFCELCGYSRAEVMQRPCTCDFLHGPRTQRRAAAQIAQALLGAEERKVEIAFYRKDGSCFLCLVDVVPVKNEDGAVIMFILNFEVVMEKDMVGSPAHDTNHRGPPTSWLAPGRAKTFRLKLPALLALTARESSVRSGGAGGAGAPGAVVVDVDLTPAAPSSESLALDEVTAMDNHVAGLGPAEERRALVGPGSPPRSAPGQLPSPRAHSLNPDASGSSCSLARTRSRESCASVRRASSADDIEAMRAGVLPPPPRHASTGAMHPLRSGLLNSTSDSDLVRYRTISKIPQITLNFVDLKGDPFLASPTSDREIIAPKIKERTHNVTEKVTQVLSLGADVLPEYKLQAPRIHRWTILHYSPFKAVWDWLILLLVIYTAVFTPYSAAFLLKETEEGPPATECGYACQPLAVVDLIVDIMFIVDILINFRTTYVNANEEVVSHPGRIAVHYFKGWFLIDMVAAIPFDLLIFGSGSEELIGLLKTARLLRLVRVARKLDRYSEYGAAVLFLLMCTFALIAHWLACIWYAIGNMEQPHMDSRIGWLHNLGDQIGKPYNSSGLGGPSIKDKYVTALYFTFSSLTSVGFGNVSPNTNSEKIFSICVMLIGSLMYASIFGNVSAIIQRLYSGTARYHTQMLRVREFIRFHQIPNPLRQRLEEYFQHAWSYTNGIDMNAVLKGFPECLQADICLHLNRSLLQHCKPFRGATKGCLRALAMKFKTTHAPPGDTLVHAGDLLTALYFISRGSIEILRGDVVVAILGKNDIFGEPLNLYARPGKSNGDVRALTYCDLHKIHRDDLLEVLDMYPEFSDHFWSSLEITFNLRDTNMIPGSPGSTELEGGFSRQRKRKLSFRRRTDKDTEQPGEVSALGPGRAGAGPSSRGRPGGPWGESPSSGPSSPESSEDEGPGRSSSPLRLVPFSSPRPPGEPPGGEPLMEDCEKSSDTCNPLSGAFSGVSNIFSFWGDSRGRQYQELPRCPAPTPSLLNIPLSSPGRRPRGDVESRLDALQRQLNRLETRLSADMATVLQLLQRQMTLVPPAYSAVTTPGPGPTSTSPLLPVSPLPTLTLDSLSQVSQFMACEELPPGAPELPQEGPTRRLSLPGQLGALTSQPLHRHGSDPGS

| SMILES | hERG current change (%, negative = inhibition) at 1uM [%] |
| --- | --- |
| Cc1cc(C)nc(/N=C(/NC(=O)c2ccccc2)Nc2ccccc2)n1 | 5.9 |
| CCOC(=O)C1(CC2CC2)CCN(Cc2cc(Cl)c(O)c(OC)c2)CC1 | -14.4 |
| Cc1cccc(NC(=O)C2C(c3ccccc3)C2(Cl)Cl)c1C (stereo not drawn) | 7.98 |
| C(C#CCCCCCCCCC[n+]1ccccc1)#CCCCCCCCCC[n+]1ccccc1.Cc1ccc(S(=O)(=O)O)cc1 | 9.06 |
| CCOc1ccc(CCNC(=O)C(C)N2C(=O)CC(C)(C)Sc3ccccc32)cc1 (stereo not drawn) | 14.3 |
| CCn1c(Cc2ccc(OC)cc2)nnc1SCC(=O)Nc1cccc(C(=O)OC)c1 | -5.48 |
| Cc1cc(C(=O)N2CCCC(CO)(Cc3ccc(F)cc3)C2)c(C)o1 (stereo not drawn) | 7.5 |
| CC1CN(C(=O)C(C)Sc2nc3ccccc3s2)CC(C)O1 (stereo not drawn) | 11.3 |
| Cc1nn(C)c(C)c1S(=O)(=O)N(CC(=O)N1CCc2ccccc21)c1ccc(C(C)C)cc1 | 2.58 |
| COc1ccc(OC)c(Nc2ncnc3sc(-c4ccccc4)cc23)c1 | 11.3 |
| Cc1[nH]c2c(ccc3ccccc32)c1C1C(CCN)C1(C)C (stereo not drawn) | 4.8 |
| COc1ccc(N=C2SC(CC(=O)Nc3ccccc3)C(=O)N2CCc2ccccn2)cc1 (stereo not drawn) | 1.91 |
| CC(=O)N(C)c1ccc(NC(=O)/C=C/c2ccccc2Cl)cc1 | 0.296 |
| Cn1ncc(Cl)c1C(=O)Nc1cccnc1 | 15.2 |
| O=C(O)C1CCCN1S(=O)(=O)c1cccc(S(=O)(=O)N2CCCC2C(=O)O)c1 (stereo not drawn) | 8.12 |
| CC(C)Cc1nc2oc3c(NCC4CCCO4)ncnc3c2c2c1CCC2 (stereo not drawn) | -8.78 |
| FC(F)(F)c1cccc(-c2nc3nc(Cl)c(Cl)nc3[nH]2)c1 | 18.5 |
| COc1cc(NC(=O)c2cnc(N)s2)cc(C(=O)Nc2cccc(C(F)(F)F)c2)c1 | -13.2 |
| COC(=O)CN(c1ccccc1OC)S(=O)(=O)c1ccccc1 | -0.426 |
| N#Cc1cc([N+](=O)[O-])ccc1NC(=O)COC(=O)CC1CCCC1 | 4.27 |
| Cn1c(N2CCOCC2)nc(-c2ccccc2)c1-c1ccccc1 | 4.43 |
| CN(C)S(=O)(=O)N1CCCC(C(=O)c2ccc(-c3ccccc3)c(F)c2)C1 (stereo not drawn) | 9.5 |

| SMILES | hERG current change (%, negative = inhibition) at 1uM [%] |
| --- | --- |
| COc1cccc(-n2c(C)c3c(OC)cccc(=O)c3c2C)c1 | 5.6 |
| CC(O)c1c(OCc2ccccc2)ncnc1OCc1ccccc1 (stereo not drawn) | -3.83 |
| Cc1ccc(C(=O)CSc2nnc(CNc3nc(-c4ccccc4)cs3)n2C)cc1 | 7.92 |
| Cc1ccc(NC(=O)C(c2ccccc2)N2CCN(C(=O)c3ccco3)CC2)cc1Cl (stereo not drawn) | 2.28 |
| N#C/C(=C\c1cccc(OC(=O)c2cccs2)c1)C(N)=O | 14.4 |
| COc1ccccc1Nc1nc(NCc2ccco2)c2ccccc2n1.Cl | -1.94 |
| CC(Oc1cccc(Cl)c1)C(=O)Nc1ccc(S(=O)(=O)N(C)C2CCN(C)CC2)cc1 (stereo not drawn) | 3.5 |
| Cc1cc(OC(C)C)c2c(-c3ccccc3)cc(=O)oc2c1 | 6.97 |
| CCOc1ccc2[nH]c(=O)c(C(c3nnnn3C3CCCCC3)N3CCN(CC)CC3)cc2c1 (stereo not drawn) | -10 |
| CC(NC(=O)CC(c1ccccc1)c1cc(Cl)ccc1O)c1ccccc1 (stereo not drawn) | 3.76 |
| NNC(=O)COc1ccc(C2SCCS2)cc1 | 1.08 |
| Cc1ccc(CSc2nnc(C)c(=O)[nH]2)cc1 | 17.3 |
| CCOC(=O)Nc1ccc2c(c1)N(C(=O)N1CCN(C)CC1)c1ccccc1S2.Cl | -3.77 |
| O=C(Cn1cnc2c(nnn2Cc2ccccc2F)c1=O)NCC1CCCO1 (stereo not drawn) | 1.99 |
| CSc1nc(Oc2ccc(F)cc2)c2ccccc2n1 | 6.5 |
| O=C(c1ccc(S(=O)(=O)NCc2ccco2)cc1)N1CCN(Cc2ccccc2)CC1 | -2.48 |
| COc1ccc(OCc2cnc(Cl)s2)cc1 | 13.8 |
| CC(=O)Nc1ccc(S(=O)(=O)/N=C2\C(=O)c3ccccc3C([O-])=C2n2cc[n+](-c3ccccn3)c2)cc1 | 6.58 |
| COc1ccc(S(=O)(=O)Nc2ccc(S(=O)(=O)Nc3ccc(F)cc3)cc2)cc1C | -0.526 |
| OC(COc1ccccc1)Cn1c2ccccc2c2ccccc21 (stereo not drawn) | 8.25 |
| Cc1ccc(N2C(=O)CC(Sc3ccccc3C(=O)O)C2=O)cc1C (stereo not drawn) | 16.3 |
| COc1cccc(NC(=O)C2CCOC2=O)c1 (stereo not drawn) | 18.5 |

| SMILES | hERG current change (%, negative = inhibition) at 1uM [%] |
| --- | --- |
| O=C(NCc1cccs1)c1cc2ccccc2o1 | 9.25 |
| CCCCn1c(N)c(N(Cc2ccccc2OC)C(=O)c2cc(CC)c(C)s2)c(=O)[nH]c1=O | 6.37 |
| COCCNC(=O)CSc1nnc(-c2ccc(C)cc2)c(-c2ccc(C)cc2)n1 | 3.66 |
| CCOC(=O)N1CCC(NC(=O)C2CCN(C(=O)N3CC(C)Oc4ccc(C)cc43)CC2)CC1 (stereo not drawn) | -7.89 |
| Cc1ccc(NC(=O)COC(=O)CCC(=O)c2cccs2)c(C)c1 | 9.96 |
| COc1ccc(OC)c(C2/C(=C(\O)c3ccc4c(c3)OCCO4)C(=O)C(=O)N2CC2CCCO2)c1 (stereo not drawn) | 2.13 |
| COc1ccc(CCNC(=O)CN(c2ccc(OC)c(OC)c2)S(C)(=O)=O)cc1OC | -3.95 |
| COc1ccc(OCC(O)CNC(=O)c2sccc2Cl)cc1 (stereo not drawn) | 0.0429 |
| CSC1=C(C#N)C2(CCCC2)C(C#N)=C(N)N1 | 5.05 |
| O=C(O)CCCNC(=O)/C(=C\c1ccccc1F)NC(=O)c1ccccc1 | 13.5 |
| Cc1cc(C(=O)COc2cc(F)ccc2[N+](=O)[O-])c(C)n1C1CC1 | 3.77 |
| CC1CCC2(CC1)NC(=O)N(CC(=O)NC(C)c1ccc(F)c(F)c1)C2=O (stereo not drawn) | -7.07 |
| COc1ccc(-c2csc(NC(=O)c3nc(-c4ccccc4)oc3C)n2)cc1 | 12.7 |
| O=C(c1ccc(Cl)c(S(=O)(=O)N2CCCCCC2)c1)N1CCCCC1 | 11.2 |
| O=C(NC(=S)Nc1ccc(S(=O)(=O)Nc2nccs2)cc1)c1ccc(Br)o1 | 14.6 |
| COc1ccc2c(c1[N+](=O)[O-])CCC/C2=N/OC(=O)c1cccc2ccccc12 | 13.3 |
| CN(C)CC(=O)Nc1ccc2cn[nH]c2c1 | 7.53 |
| CN(C)c1ncnc2sc(-c3ccccc3)cc12 | 10.6 |
| CCOC(=O)c1cc2cc(OC)ccc2[nH]1 | 1.1 |
| COc1ccc(C(=O)NC(=S)Nc2nc(C)c(C(=O)N(C)C)s2)cc1 | 10.3 |
| Cc1oc(-c2ccccc2Cl)nc1CSCC(=O)O | 3.61 |
| CC(=O)C1=C(c2ccccc2)OC(N)=C(C#N)C1c1ccc(O)cc1 (stereo not drawn) | 4 |

| SMILES | hERG current change (%, negative = inhibition) at 1uM [%] |
| --- | --- |
| Cc1cc(=O)[nH]c(SCC(=O)Nc2ccnc3ccccc23)n1 | 9.07 |
| CCCCN=CC1=C(O)C(C(=O)OC)C(C)(C)CC1=O (stereo not drawn) | 17.4 |
| C=C1CCN([C@@H](C)C(=O)NCCCCCC)S(=O)(=O)c2ccccc21 | -13.6 |
| Cc1cccc(C(=O)O/N=C/c2c(N3CCOCC3)n(C)c3ccccc23)c1 | -11.3 |
| C[C@@H]1NC(=O)N(CCCn2ccnc2)C1=O | 8.11 |
| CCOC(=O)Cc1csc(NS(=O)(=O)Cc2ccccc2)n1 | 16 |
| O=C(CN(Cc1ccco1)C(=O)CCC(=O)Nc1ccccn1)NCc1ccccc1 | 12.3 |
| O=C(CSc1nnnn1-c1cccc(Cl)c1)Nc1ccc2c(c1)CCC2 | 5.76 |
| COc1ccc(NC(=O)c2cn(C)c(=O)c3cc(OC)c(OC)cc23)c(OC)c1 | 13 |
| Cc1cccc(OCCN2C(=O)c3ccccc3C2=O)c1 | 17.7 |
| C/C=C\C(=O)Nc1cccc(C2=NOC3(C2)C[C@@H](C(N)=O)N(C(=O)c2ccccc2)C3)c1 (stereo partly drawn) | 11.6 |
| CCOCCCNCc1ccc(OCc2ccc(F)cc2)c(OC)c1.Cl | -3.15 |
| CCS(=O)(=O)N1Cc2ccccc2CC1C(=O)Nc1nc2ccccc2s1 (stereo not drawn) | 9.11 |
| Cc1cc(C)nc(SCC2COc3ccccc3O2)n1 (stereo not drawn) | 10.4 |
| CCOC(=O)C1CCN(C(=O)c2cc3c(OC)c(OC)c(OC)cc3[nH]2)CC1 | 14 |
| Cc1ccc2c(c1)S/C(=C\c1cccc[n+]1C)N2CCO.[I-] | 13.7 |
| CN1CCN(S(=O)(=O)c2cccc(C(=O)Nc3cc(Cl)ccc3N3CCOCC3)c2)CC1 | 4.76 |
| COC(=O)CSc1nc(N)c(C#N)c(C(C)C)c1C#N | 17.3 |
| CSc1ccc(C(=O)C2CCCN(Cc3cccnc3)C2)cc1 (stereo not drawn) | -4.37 |
| CCc1ccc(C(=O)CSc2nc3cc(S(=O)(=O)N4CCOCC4)ccc3n2CC)cc1 | -3.48 |
| CC(C)COc1cccc(C(=O)Nc2ccc(S(=O)(=O)N3CCOCC3)cc2)c1 | 12.6 |
